This is an account of results in PubChem BioAssay AID1159614 (National Center for Advancing Translational Sciences (NCATS), 2016).

The whole screen tested about 45,000 compounds, of which about 65 (0.1%) were called active. Calls follow the shape of the dose curve; as a rule, active = well fitted activation curve with a large enough effect; inconclusive = small, poorly fitted or top-dose-only effect; inactive = no such curve, though single readings can be large or run the other way. Some of the results follow.

UniProt P54803, sequence (P54803 whole entry, looked up): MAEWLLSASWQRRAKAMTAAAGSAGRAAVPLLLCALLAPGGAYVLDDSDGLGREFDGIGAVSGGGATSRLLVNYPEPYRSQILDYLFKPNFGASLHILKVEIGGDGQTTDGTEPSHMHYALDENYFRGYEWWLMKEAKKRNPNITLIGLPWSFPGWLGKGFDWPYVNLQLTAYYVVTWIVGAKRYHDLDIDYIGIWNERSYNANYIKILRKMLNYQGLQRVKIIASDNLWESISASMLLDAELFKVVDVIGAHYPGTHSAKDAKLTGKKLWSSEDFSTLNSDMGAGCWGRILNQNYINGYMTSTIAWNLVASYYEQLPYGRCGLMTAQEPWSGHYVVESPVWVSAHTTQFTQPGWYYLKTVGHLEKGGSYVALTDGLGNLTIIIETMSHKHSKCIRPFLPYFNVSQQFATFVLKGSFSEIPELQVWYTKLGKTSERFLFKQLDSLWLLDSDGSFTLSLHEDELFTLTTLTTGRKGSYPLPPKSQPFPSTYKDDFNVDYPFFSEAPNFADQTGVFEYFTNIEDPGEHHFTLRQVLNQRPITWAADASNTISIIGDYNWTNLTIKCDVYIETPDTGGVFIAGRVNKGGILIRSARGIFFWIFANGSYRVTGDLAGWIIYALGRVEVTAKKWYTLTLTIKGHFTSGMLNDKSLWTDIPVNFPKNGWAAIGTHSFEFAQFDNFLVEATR

This experiment has as its target Galactocerebrosidase (Homo sapiens) (UniProt P54803). The experiment can be described thus: A Novel Cell-Based Assay to Identify Small Molecules for B -Galactocerebrosidase. Also: 0% is about no effect; nearly all actives have a fitted effect of over 65% in size. The settings on record: 145M-Twi-hGALC-G270D cells (Twitcher mouse brain line with human GALC G270D), HMU-beta-Gal fluorescence, 48 h; series mostly up to 57.5 µM; activation: at the top concentration. Put shortly:
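Mutant human GALC (G270D), stably expressed in a Twitcher mouse brain cell line lacking endogenous GALC, is measured in live-treated cells via 6-hexadecanoylamino-4-methylumbelliferyl-β-galactoside hydrolysis (0.1 mM final, pH 5.2) with fluorescent detection.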
As to `CNC(=O)Cn1c(=O)c2cccn2c2ccc(F)cc21`, the “activation” value was inactive: -18.6%.

For the compound `COc1ccc(CNC(=O)CCn2nc(C)c3c(C)n(-c4ccccc4)nc3c2=O)c(OC)c1`, the “activation” value is inactive: -4.79%. Take `Cc1cccc(NC(=O)c2cc(S(=O)(=O)N3CCN(c4ccccc4F)CC3)ccc2F)c1C`: the “activation” value was inactive: -1.68%.

On to `COc1cc(C2c3c(-c4ccc(C)cc4)n[nH]c3C(=O)N2c2ccc(F)cc2)ccc1O` (configuration not stated), for which the “activation” value was inactive: 2.85%.

As for `Cc1cc(C)c(NC(=O)Cn2c(=O)nc(-c3ccccc3)c3cc(Cl)ccc32)c(C)c1`, the “activation” value was inactive: -14%. Then `CC(C)(C)c1ccc(CN(Cc2ccco2)c2cnc(S(C)(=O)=O)nc2C(=O)Nc2ccc(F)cc2)cc1`, with inactive: -4.69%; and `COc1cc(NC(=O)N2CCC3(CC2)Nc2cc(F)ccc2-n2cccc23)cc(OC)c1OC`, with inactive: -13.8%; and `N#C/C(=C/c1cn(Cc2ccccc2Cl)c2ccccc12)C(=O)Nc1cccc(Cl)c1`, with inactive: -16.9%.

Take `COc1ccc(OC)c(C2C(C(=O)N3CCCCC3)=C(C)Nc3nc4ccccc4n32)c1` (configuration not stated): the “activation” value was inactive: -12.2%. For `CCc1ccc(-c2nn(CC(=O)Nc3ccccc3C)c3c2cnc2ccc(C)cc23)cc1`, the “activation” value is inactive: -11.2%. Then `O=C(CSc1nc(-c2ccc(F)cc2)[nH]c1-c1ccccc1)Nc1ccccc1`, with inactive: -4.03%. Then `Clc1ccc(OCc2nc3ccccc3n2Cc2ccccc2)c(Cl)c1`, with inactive: -44%. Then `CCc1cccc(CC)c1-n1nnc2c(sc3nc(C)cc(C)c32)c1=O`, with inactive: -37%; and `Cc1cc(=O)n(Cc2cccc(F)c2)c2c1c(C)nn2-c1cccc(F)c1`, with inactive: -18.7%; and `Cc1ccccc1CN1c2ccccc2-c2nc(SCC(N)=O)ncc2S1(=O)=O`, with inactive: -3.52%.

As to `Cc1cccc(-c2nc(CSCC(=O)NCCc3ccc(Cl)cc3)c(C)o2)c1`, the “activation” value is inactive: -16%. Then `Cc1ccc(CNC(=O)c2ccc(-c3nc(CS(=O)c4ccccc4)c(C)o3)cc2)cc1` (configuration not stated), with inactive: -21%; and `Cc1ccc(C)c(NC(=O)CN2C(=O)c3cccnc3Oc3ccc(C)cc32)c1`, with inactive: -10%. Consider `Cc1ccc(-c2nn(CC(=O)NC3CCCC3)c3c2cnc2ccccc23)cc1`, for which the “activation” value is inactive: -16.8%. Then `COc1cc(/C=C/c2nc(C#N)c(NCCc3ccccc3)o2)cc(OC)c1OC`, with inactive: -10.9%; and `CC(C)(C)C1CCc2c(sc3nnn(CCOc4ccccc4)c(=O)c23)C1` (configuration not stated), with inactive: -12%. Then `Cc1ccc(C)c(NC(=O)c2nn(C)c3c2CS(=O)(=O)c2ccccc2-3)c1`, with inactive: -6.17%; and `COc1cc(NC(=O)c2nc3ccccc3nc2N2CCCCC2)cc(OC)c1OC`, with inactive: -14.3%; and `CCOC(=O)N1CCc2c(sc3c2c(=O)n(CCc2ccccc2)c(=O)n3CC(=O)Nc2cccc(C)c2)C1`, with inactive: 1.16%. Regarding `O=C1N(c2ccccc2)c2ccccc2C1(Cc1ccncc1)Cc1ccncc1`, the “activation” value is inactive: -7.8%.

On to `COCCn1ccc2c(OCC(=O)Nc3ccccc3F)cccc2c1=O`, for which the “activation” value was inactive: -4.04%. Then `Cc1cc(C)n(-c2nc3cc(Cl)ccc3nc2Nc2ccc(CC(=O)O)cc2)n1`, with inactive: -11.3%. For `COc1ccc2nc(NC(=O)c3nc(SCc4ccccc4F)ncc3Cl)sc2c1` the value was inactive: -10.8%; for `COC(=O)c1c(-c2cccs2)csc1NC(=O)c1ccc(OC)c(OC)c1`, inactive: -10.2%. For `Cc1cccc(NC(c2ccccc2C)c2ccc3ccc(C)nc3c2O)n1` (configuration not stated) the value was inactive: -13.1%; for `CCNC(=O)C1CCN(c2nnc(C)c3c(C)n(-c4ccc(OC)cc4)nc23)CC1`, inactive: -9.93%; for `COc1ccccc1CNC(=O)C1CCN(S(=O)(=O)c2ccc3c(ccn3C)c2)CC1`, inactive: -14.2%. For `CCCCn1c(NCc2cc(Br)ccc2O)nc2ccccc21`, the “activation” value is inactive: -10.1%. Then `COc1ccc(CNC(=O)Cn2nc(N3CCN(c4ccccc4)CC3)ccc2=O)c(OC)c1`, with inactive: -15%; and `Cc1ccc(-c2nc(CS(=O)(=O)CC(=O)NCCc3ccccc3)c(C)o2)cc1`, with inactive: -15.8%. Then `Cc1ccc2c(c1)NC(=O)c1cccnc1O2`, with inactive: -0.44%; and `COc1ccc(S(=O)(=O)c2c(SC)nn(CC(=O)Nc3cccc(C)c3C)c2N)cc1`, with inactive: -12.7%. For `Cc1cccc(OCC(O)Cn2c(=N)n(CCN3CCCCC3)c3ccccc32)c1` (configuration not stated) the value was inactive: -12.7%.

In the case of `CCC(C)NC(=O)CSc1nc2c(sc3ccccc32)c(=O)n1CCc1ccc(OC)c(OC)c1` (configuration not stated), the “activation” value was inactive: -17.4%. Turning to `CCN(CC)c1nc2c(S(=O)(=O)c3cccc(Cl)c3)nnn2c2ccsc12`, the “activation” value was inactive: -12.2%. As to `CCn1cc(C(=O)NCc2ccc(C)cc2)c(=O)c2cc(S(=O)(=O)N(C)C3CCCCC3)ccc21`, the “activation” value was inactive: -6.22%.

As to `CCc1ccc(CN(Cc2ccco2)C(=O)COc2ccc(Cl)c(C)c2)cc1`, the “activation” value was inactive: -38.4%. Then `CCC(C)Nc1oc(-c2ccc(COc3ccc(Cl)cc3)o2)nc1C#N` (configuration not stated), with inactive: -10.7%; and `CC1=C(C(=O)Nc2ccccc2)C(c2ccncc2)n2nc(SCc3ccccc3F)nc2N1` (configuration not stated), with inactive: -3.58%. Take `O=C(Nc1ccc(OCc2cc(=O)n3ccccc3n2)cc1)c1ccccc1Cl`: the “activation” value was inactive: -9.4%. For `COc1cccc(OCc2cc(=O)n3c(-c4ccccc4)csc3n2)c1` the value was inactive: -11.2%. As to `COc1nc(-c2ccccc2)ccc1-c1noc(-c2ccccc2Br)n1`, the “activation” value is inactive: -11.7%. For `O=C(O)CNC(=O)c1ccccc1I` the value was inactive: -10.9%; for `CCN1CCN(C(=O)Cn2c(-c3cccs3)cc3ccccc32)CC1`, inactive: -12.8%.

For the compound `O=C(CN1C(=O)COc2ccc(S(=O)(=O)N3CCCC3)cc21)N1CCN(c2cccc(C(F)(F)F)c2)CC1`, the “activation” value is inactive: 8.87%. Then `CCOc1ccccc1CNC(=O)CCc1c(C)nn(-c2ccc(N3CCOCC3)nn2)c1C`, with inactive: -9.07%.

With `CCN(CC)S(=O)(=O)c1ccc(C(=O)NCCSc2c(-c3ccc(C)cc3)[nH]c3ccccc23)cc1`, the “activation” value was inactive: -1.6%. Consider `COc1ccc(N2CCN(S(=O)(=O)CCNC(=O)COc3ccccc3F)CC2)cc1`, for which the “activation” value was inactive: -15.5%. For `COc1ccc(CCNC(=O)c2ccc3c(c2)N(Cc2ccccc2F)C(=O)c2ccccc2S3=O)cc1OC` (configuration not stated) the value was inactive: -5.72%; for `COC(=O)c1cccc(NC(=O)c2nsc3ccccc23)c1`, inactive: 4.14%.

Turning to `Cc1cn2c(=O)cc(COC(=O)c3cccc(NC(=O)COc4ccccc4C)c3)nc2s1`, the “activation” value was inactive: -1.03%.

As for `Cc1ccc(NC(=O)CCNS(=O)(=O)c2cccc3nonc23)cc1Cl`, the “activation” value is inactive: -23.6%. Then `Cc1ccccc1C(=O)NCCc1csc(-c2ccc(C(F)(F)F)cc2)n1`, with inactive: -8.37%.

As for `Cc1ccccc1N1C(=O)c2cc(S(N)(=O)=O)c(Cl)cc2NC1C` (configuration not stated), the “activation” value is inactive: -7.23%. Regarding `COc1ccc(-n2c(-c3ccc(C)cc3)cc3c2CC(C)(C)CC3=O)c(OC)c1`, the “activation” value was inactive: -14.6%. For `Cc1ccc(Cc2nc3ccccc3nc2SCC(=O)N2CCCc3ccccc32)cc1` the value was inactive: -20%; for `CCOC(=O)CSc1nc(-c2ccc(Cl)cc2)cc(C(F)(F)F)c1C#N`, inactive: -8.77%.
